Values joined by “and” are separate entries in the source; they are usually repeats but may differ in a detail not shown here. Identical values can stand only once. The campaign covered roughly 290,000 compounds. About 2,100 (0.72%) were called active. Roughly 4% stayed inconclusive and do not appear here. Calls come from the whole dose curve; as a rule, active = well fitted inhibition curve with a large enough effect; inconclusive = small, poorly fitted or top-dose-only effect, or effect the other way; inactive = flat fitted curve, though single readings scatter. The list shows a part of the results, in another mix than the full data. More than one record can exist for a structure, and the calls need not agree.
Each compound was assayed against Fructose-bisphosphate aldolase (Giardia intestinalis (strain ATCC 50803 / WB clone C6)) (UniProt A8B2U2) (assay: qHTS Assay for Inhibitors of Fructose-1,6-bisphosphate Aldolase from Giardia Lamblia). Conditions: purified Giardia FBPA; series mostly up to 59.6 µM; activity, negative = inhibition: at the top concentration.
Chain of UniProt A8B2U2 (A8B2U2 whole entry, looked up): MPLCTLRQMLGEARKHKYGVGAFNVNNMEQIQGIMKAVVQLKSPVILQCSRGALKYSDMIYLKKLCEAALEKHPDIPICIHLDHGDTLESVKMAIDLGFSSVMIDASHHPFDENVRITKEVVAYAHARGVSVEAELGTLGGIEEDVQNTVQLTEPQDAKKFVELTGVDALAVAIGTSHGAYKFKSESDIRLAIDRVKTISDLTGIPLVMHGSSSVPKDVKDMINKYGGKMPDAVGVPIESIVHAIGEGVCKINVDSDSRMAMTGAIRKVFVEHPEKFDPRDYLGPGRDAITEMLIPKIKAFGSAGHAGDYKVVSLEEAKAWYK
Procedure, shortened: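 40 nM FBPA preincubated 10 min at RT with compound (up to 57.5 uM final), then substrate plus GAPDH/TPI/NAD/arsenate coupling and diaphorase/resazurin added. Fluorescence read after 20 min at RT, 525/598 nm.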
% is set by controls: 0 for no effect and ±100 for the full control effect; potency is the fitted concentration of half-maximal effect.
Note: nearly all actives have a fitted effect of over 55% in size.

Compound | activity, negative = inhibition | Potency
COc1cc(NC(C)CCCN)c2ncccc2c1 (stereo not drawn) | inactive: -19.4% | 
O=C(Nc1cc(C(=O)Nc2ccc(S(=O)(=O)O)cc2S(=O)(=O)O)cc(C(=O)Nc2ccc(S(=O)(=O)O)cc2S(=O)(=O)O)c1)Nc1cc(C(=O)Nc2ccc(S(=O)(=O)O)cc2S(=O)(=O)O)cc(C(=O)Nc2ccc(S(=O)(=O)O)cc2S(=O)(=O)O)c1 | inactive: -9.93% | 
Cc1ccc(S(=O)(=O)NC(=O)NN2CCCCCC2)cc1 |  | inactive
CO/N=C(/C(=O)NC1C(=O)N2C(C(=O)O)=C(CSc3nc(=O)c(O)nn3C)CSC12)c1csc(N)n1 (stereo not drawn) | inactive: -24.5% | 
CN1CCOC(c2ccccc2)c2ccccc2C1 (stereo not drawn) | inactive: -11.1% | 
CCC1(C)Cc2c(C#N)c(N)sc(=S)c2CO1 (stereo not drawn) |  | active: 2.23 µM
CCCCCCCCCCCC1=C(O)C(=O)C=C(O)C1=O |  | inactive
Cc1cccc(CN2CCN([C@@H](c3ccccc3)c3ccc(Cl)cc3)CC2)c1 | inactive: -9.67% [at 21.7 µM] | 
CCc1oc2ccccc2c1C(=O)c1cc(Br)c(O)c(Br)c1 |  | inactive
Cc1c(N2C(=O)/C(=C3\C(=O)N(CC(=O)O)c4ccccc43)SC2=S)c(=O)n(-c2ccccc2)n1C |  | active: 9.98 µM
CC1(OC(=O)C2CCCC2)C(=O)C=C2C=C(c3ccsc3)OC=C2C1=O (stereo not drawn) | inactive: -19.7% | 
CCn1c(O)c(C(c2ccccn2)c2c(O)n(CC)c(=S)[nH]c2=O)c(=O)[nH]c1=S |  | active: 17.7 µM
CC[C@H](C)C(=O)O[C@@H]1C[C@H](C)C=C2C=C[C@H](C)[C@@H](CC[C@H]3C[C@@H](O)CC(=O)O3)[C@H]21 | inactive: -1.18% [at 21.7 µM] | 
COc1cc2c(cc1OC)-c1c(OC)c(OC)cc3ccnc(c13)C2=O | inactive: -29.2% | 
CC(C)C1CCC(C(=O)N[C@H](Cc2ccccc2)C(=O)O)CC1 (stereo partly drawn) | inactive: 29.4% | 
C/C=C1/CN2CC[C@]34C(=C(C=O)[C@H]1C[C@@H]23)Nc1ccccc14 | inactive: 2.42% | 
COc1cc(O)c(C(CC(=O)N2CCCCC2)c2ccc3c(c2)OCO3)c(OC)c1 (stereo not drawn) | inactive: -28.4% | 
O=[N+]([O-])c1ccc(SCCc2ccncc2)cc1 | inactive: 3.43% | 
O=C1/C(=C/c2cc3c(cc2Cl)OCO3)N2CCC1CC2 | inactive: -9.27% | 
CC(C)NCC(O)c1cc(O)cc(O)c1 (stereo not drawn) |  | inactive
CO/N=C(\C(=O)N[C@@H]1C(=O)N2C(C(=O)O)=C(CSc3nc(=O)c(O)nn3C)CSC12)c1csc(N)n1 (stereo partly drawn) | inactive: -0.662% | 
CCOc1ccc(N/C(C)=C\C(=O)c2ccc3c(c2)OCCO3)cc1 | inactive: 12.6% | 

Compound | activity, negative = inhibition | Potency
N[C@@H](COP(=O)(O)O)C(=O)O | inactive: 2.04% | 
COC(=O)CCCC1=CC2=CC(=O)C(C)(OC(=O)c3cccs3)C(=O)C2=CN1c1cccc(C#N)c1 (stereo not drawn) | inactive: -10.8% [at 12.9 µM] | 
NCCc1ccc(O)c(O)c1 |  | inactive
COC(=O)CCCC1=CC2=CC(=O)C(C)(OC(=O)CCc3ccccc3)C(=O)C2=CO1 (stereo not drawn) |  | inactive
O=[N+]([O-])c1cc(F)c2cccnc2c1O |  | active: 19.9 µM
COC(=O)[C@H]1[C@H]2C[C@H]3c4[nH]c5ccccc5c4CCN3C[C@H]2CC[C@@H]1O | inactive: -2.99% | 
NCC(O)c1ccc(O)cc1 (stereo not drawn) |  | inactive
CC1(C)CC(=O)C(/C=N/n2cnc3ccccc3c2=O)=C(O)C1 |  | active: 17.7 µM
CNc1ccc2oc(C[C@H]3O[C@]4(CC[C@H]3C)O[C@H]([C@H](C)C(=O)c3ccc[nH]3)[C@H](C)C[C@H]4C)nc2c1C(=O)O | inactive: -8.39% | 
Nc1ncnc2nc[nH]c12 | inactive: 0.532% | 
CC(=O)C[C@@H](c1ccccc1)c1c(O)c2ccccc2oc1=O | inactive: 20.8% | 
CCOC(=O)N1CC=C2C(C#N)=C(N)C(C#N)(C#N)[C@H](c3cccs3)C2C1 (stereo partly drawn) | inactive: -9.82% | 
N[C@@H](Cc1ccc(O)c(O)c1)C(=O)O | inactive: -28.5% [at 21.7 µM] | 
O=C1c2c(O)ccc(O)c2C(=O)c2c(NCCNCCO)ccc(NCCNCCO)c21 |  | inactive
CC(=Nc1ccccc1N)c1c(C)cc(=O)n(O)c1O |  | active: 8.89 µM and active: 15.8 µM
C[C@@](Cc1ccc(O)c(O)c1)(NN)C(=O)O | inactive: -3.02% | 
c1ccc(-c2ccc(C(c3ccccc3)n3ccnc3)cc2)cc1 (stereo not drawn) |  | inactive
c1cncc(C2Nc3cccc4cccc(c34)N2)c1 | inactive: -22.2% | 
COC(=O)CCCC1=CC2=C(c3ccccc3)C(=O)C(C)(OC(=O)C3CCCC3)C(=O)C2=CN1Cc1ccco1 (stereo not drawn) | inactive: -17.4% [at 12.9 µM] | 
CCCCc1cc2c(cn1)=C(OC(=O)c1cnc3ccccc3n1)C(C)(OC(=O)CC)C(=O)C=2 (stereo not drawn) | inactive: -11.8% [at 12.9 µM] | 
CC(=O)O[C@]1(C(C)=O)CC[C@H]2[C@@H]3C=C(Cl)C4=CC(=O)CC[C@]4(C)[C@H]3CC[C@@]21C | inactive: -29% | 
Nc1ccn([C@H]2C[C@H](O)[C@@H](CO)O2)c(=O)n1 | inactive: 5.26% | 

Compound | activity, negative = inhibition | Potency
N#C/C(=C/c1ccncc1)c1nc2ccccc2c(=O)[nH]1 | inactive: -24.7% | 
CC(C)CN1C=C2C(=O)C(C)(OC(=O)C3CCCC3)C(=O)C=C2C=C1c1ccsc1 (stereo not drawn) | inactive: 7.49% [at 12.9 µM] | 
CCC[C@H]1C[C@H](C(=O)N[C@@H]([C@H]2O[C@@H](SC)[C@@H](O)[C@@H](O)[C@@H]2O)[C@H](C)Cl)N(C)C1 | inactive: 0.681% [at 21.7 µM] | 
CCC(C)C(=O)OC1CC(C)C=C2C=CC(C)C(CCC3CC(O)CC(=O)O3)C21 (stereo not drawn) | inactive: 0.848% | 
CN[C@@H](C)[C@@H](O)c1ccccc1 | inactive: -20.8% | 
O=C(O)Cc1csc(-c2cccc(Oc3ccccc3)c2)n1 | inactive: 26.2% | 
COC1=C[C@@H]2[C@@H]3Cc4ccc(OC)c(O)c4[C@]2(CCN3C)CC1=O | inactive: -25% | 
COC(=O)[C@H]1[C@@H]2C[C@@H]3c4[nH]c5ccccc5c4CCN3C[C@H]2CC[C@H]1O | inactive: -22.7% | 
CO[C@]1(NC(=O)Cc2cccs2)C(=O)N2C(C(=O)O)=C(COC(N)=O)CS[C@H]21 | inactive: -14.4% [at 21.7 µM] | 
COc1cc(Br)c(CN2CCCN(C)CC2)cc1OC |  | active: 12.6 µM
C[C@H](N)Cc1c[nH]c2ccc(O)cc12 | inactive: -27.1% | 
C[C@@H]1CCc2cc(F)cc3c(=O)c(C(=O)O)cn1c23 | inactive: -13.4% [at 21.7 µM] | 
COc1ccc2c(c1)c(CC(=O)OCC(=O)O)c(C)n2C(=O)c1ccc(Cl)cc1 |  | inactive
COC/C=C/C1=CC2=CC(=O)C(C)(OC(=O)CCC(=O)OC)C(=O)C2=CO1 (stereo not drawn) | inactive: -13.2% | 
CC(C)c1ccc(/C=N/N2CCCCC2)cc1 |  | active: 14.1 µM
O=C(O)c1cccc(-n2cccc2/C=C\[N+](=O)[O-])c1 | inactive: -21.9% | 
Cn1cc(C2=C(c3cn(CCCSC(=N)N)c4ccccc34)C(=O)NC2=O)c2ccccc21 | inactive: -28.6% | 
COC(=O)CCC(=O)OC1(C)C(=O)C=C2C=C(C3CC3)N(CCCOC(C)C)C=C2C1=O (stereo not drawn) | inactive: -27% [at 12.9 µM] | 
CNC(C)[C@@H](O)c1ccccc1 (stereo partly drawn) | inactive: 1.99% | 
C[C@@H](C(=O)O)c1ccc(-c2ccccc2)c(F)c1 | inactive: 15.2% [at 21.7 µM] | 
Fc1ccc(-[n+]2nc(Nc3ccccc3)sc2-c2c3ccccc3cc3ccccc23)cc1 |  | active: 22.4 µM
O=c1cc(O)c2sc(Nc3ccc(F)c(Cl)c3)nc2[nH]1 |  | active: 1.99 µM

Compound | activity, negative = inhibition | Potency
N#Cc1c(N2CCCCC2)nc(N)c2c(N)nc(SCC(=O)O)cc12 |  | active: 12.6 µM
COc1cc2nc(N3CCN(C(=O)[C@H]4CCCO4)CC3)nc(N)c2cc1OC | inactive: -2.34% | 
CNc1ccc2oc(C[C@@H]3OC4(CC[C@@H]3C)O[C@H](C(C)C(=O)c3ccc[nH]3)[C@H](C)C[C@H]4C)nc2c1C(=O)O (stereo partly drawn) | inactive: -7.92% | 
CC1(OC(=O)C2CCCC2)C(=O)C=C2C=C(c3ccsc3)N(Cc3ccco3)C=C2C1=O (stereo not drawn) | inactive: -24.6% [at 12.9 µM] | 
NCCS |  | inactive
C/C(=C/C=C/[C@@H](C)C(=O)O)[C@H]1CN[C@H](C(=O)O)[C@H]1CC(=O)O | inactive: -29.8% | 
CC1(C)[C@@H](O)CC[C@]2(C)[C@H]3C(=O)C=C4[C@@H]5C[C@@](C)(C(=O)O)CC[C@]5(C)CC[C@@]4(C)[C@]3(C)CC[C@@H]12 | inactive: -0.579% | 
COc1ccc2c3c1O[C@H]1C[C@@H](O)C=C[C@@]31CCN(C)C2 |  | inactive
O=C1S/C(=C/c2ccc(N3CCOCC3)o2)C(=O)N1Cc1c(F)cccc1Cl | inactive: -20.4% | 
NC(=O)N1c2ccccc2CC(=O)c2ccccc21 | inactive: -7.37% | 
C=CCN1C=C2C(=O)C(C)(OC(=O)C3CCCC3)C(=O)C(c3ccccc3)=C2C=C1CCCC(=O)OC (stereo not drawn) | inactive: -5.01% [at 12.9 µM] | 
Fc1ccccc1CN1CCN(c2ncccn2)CC1 |  | active: 25.1 µM
CC1(OC(=O)CCc2ccccc2)C(=O)C=C2C=C(c3ccc(C#N)cc3)N(CCc3ccccn3)C=C2C1=O (stereo not drawn) | inactive: 11% [at 12.9 µM] | 
C[C@H](CCC(=O)O)[C@H]1CC[C@@H]2[C@H]3CC[C@H]4C[C@@H](O)CC[C@@]4(C)[C@H]3CC[C@]21C | inactive: 15.6% [at 21.7 µM] | 
COc1ccc(CN2CCN(Cc3ccccc3F)CC2)cc1 |  | active: 15.8 µM
NC(=O)C1CCN(CC(=O)Nc2nccs2)CC1 |  | active: 3.55 µM
O=S(=O)(NCc1ccco1)c1ccccc1Br | inactive: -12.9% | 
COC(=O)CCC(=O)OC1(C)C(=O)C=C2C=C(C3CC3)N(CCN3CCOCC3)C=C2C1=O (stereo not drawn) | inactive: -28.6% [at 12.9 µM] | 
Cc1cc(C)c(O)c(N)c1 |  | active: 19.9 µM
CCCCC1=CC2=C(c3ccco3)C(=O)C(C)(OC(=O)c3ccc(OC)cc3)C(=O)C2=CN1C1CC1 (stereo not drawn) | inactive: -29.3% | 
N#C/C(=C/c1ccco1)C(N)=S |  | active: 15.8 µM
CO/N=C(\C(=O)N[C@@H]1C(=O)N2C(C(=O)O)=C(COC(C)=O)CS[C@H]12)c1csc(N)n1 (stereo in doubt) |  | inactive
